# Data: the supplement of paper PMC8728848
# The list shows a part of the results.
# B1: ArathEULS3 (Arabidopsis thaliana), Q945P1 (protein)
# chain: MEHHHQHHRHHQRDDGEDDRQSFGVPPPHVDAPPQPHGLYQSQPHFDPYAPTPQAPAPYRSETQFEPHAPPPYRSEPYFETPAPPPSFGHVSHVGHQSPNESYPPEHHRYGGYQQPSNSLLESHGDHSGVTHVAHHSSNQPQSSSGVYHKPDENRLPDNLAGLAGRATVKVYSKAEPNYNLTIRDGKVILAPADPSDEAQHWYKDEKYSTKVKDADGHPCFALVNKATGEAMKHSVGATHPVHLIRYVPDKLDESVLWTESKDFGDGYRTIRMVNNTRLNVDAYHGDSKSGGVRDGTTIVLWDWNKGDNQLWKIFPFILEQKLISEEDLNSAVDHHHHHH
# Experiments:
# Assay in all cases: glycan array binding signal (z-score within array); higher = stronger binding
# Settings in all cases: glycan notation: IUPAC condensed, linker removed
# Gal3S4S(b1-4)GlcNAc = target: Gal3S4S(b1-4)GlcNAc
# In short: (§1)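 From the Consortium for Functional Glycomics database, 3228 arrays were curated, keeping only those whose protein sequence was available. Binding is given as a within-array Z-score averaged across arrays sharing a protein sequence and across linkers. Negative Z-scores can be read as non-binding.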
# Gal3S6S(b1-4)GlcNAc = target: Gal3S6S(b1-4)GlcNAc
# In short: as §1
# Gal3S6S(b1-4)GlcNAc6S = target: Gal3S6S(b1-4)GlcNAc6S
# In short: as §1
# Gal4S(b1-4)GlcNAc = target: Gal4S(b1-4)GlcNAc
# In short: as §1
# Gal4S6S(b1-4)GlcNAc = target: Gal4S6S(b1-4)GlcNAc
# In short: as §1
# Gal6P(b1-4)GlcNAc = target: Gal6P(b1-4)GlcNAc
# In short: as §1
# Gal6S(b1-3)GlcNAc = target: Gal6S(b1-3)GlcNAc
# In short: as §1
# Gal6S(b1-3)GlcNAc6S = target: Gal6S(b1-3)GlcNAc6S
# In short: as §1
# Gal6S(b1-4)Glc = target: Gal6S(b1-4)Glc
# In short: as §1
# Gal6S(b1-4)Glc6S = target: Gal6S(b1-4)Glc6S
# In short: as §1
# Gal6S(b1-4)GlcNAc = target: Gal6S(b1-4)GlcNAc
# In short: as §1
# Gal6S(b1-4)GlcNAc6S = target: Gal6S(b1-4)GlcNAc6S
# In short: as §1
# GalNAc(a1-3)Gal = target: GalNAc(a1-3)Gal
# In short: as §1
# GalNAc(a1-3)GalNAc = target: GalNAc(a1-3)GalNAc
# In short: as §1
# [1] = target: GalNAc(a1-3)GalNAc(b1-3)Gal(a1-4)Gal(b1-4)Glc
# In short: as §1
# [2] = target: GalNAc(a1-3)GalNAc(b1-3)Gal(a1-4)Gal(b1-4)GlcNAc
# In short: as §1
# GalNAc(b1-3)Gal = target: GalNAc(b1-3)Gal
# In short: as §1
# [3] = target: GalNAc(b1-3)Gal(a1-4)Gal(b1-4)GlcNAc
# In short: as §1
# [4] = target: GalNAc(b1-3)Gal(a1-4)Gal(b1-4)GlcNAc(b1-3)Gal(b1-4)Glc
# In short: as §1
# [5] = target: GalNAc(b1-3)Gal(a1-6)Gal(b1-4)Glc
# In short: as §1
# GalNAc(b1-3)GalNAc = target: GalNAc(b1-3)GalNAc
# In short: as §1
# GalNAc(b1-4)Gal(b1-4)Glc = target: GalNAc(b1-4)Gal(b1-4)Glc
# In short: as §1
# GalNAc(b1-4)GlcNAc = target: GalNAc(b1-4)GlcNAc
# In short: as §1
# [6] = target: GalNAc(b1-4)GlcNAc(b1-2)Man(a1-3)[GalNAc(b1-4)GlcNAc(b1-2)Man(a1-6)]Man(b1-4)GlcNAc(b1-4)GlcNAc
# In short: as §1
# GalNAc(b1-4)GlcNAc6S = target: GalNAc(b1-4)GlcNAc6S
# In short: as §1
# GalNAc(b1-6)GalNAc = target: GalNAc(b1-6)GalNAc
# In short: as §1
# GalNAc3S(b1-4)GlcNAc = target: GalNAc3S(b1-4)GlcNAc
# In short: as §1
# GalNAc3S(b1-4)GlcNAc3S = target: GalNAc3S(b1-4)GlcNAc3S
# In short: as §1
# GalNAc4S6S(b1-4)GlcNAc = target: GalNAc4S6S(b1-4)GlcNAc
# In short: as §1
# GalNAc6S(b1-4)GlcNAc = target: GalNAc6S(b1-4)GlcNAc
# In short: as §1
# Glc(a1-4)Glc = target: Glc(a1-4)Glc
# In short: as §1
# [7] = target: Glc(a1-4)Glc(a1-4)Glc(a1-4)Glc
# In short: as §1
# Glc(a1-6)Glc(a1-6)Glc = target: Glc(a1-6)Glc(a1-6)Glc
# In short: as §1
# [8] = target: Glc(a1-6)Glc(a1-6)Glc(a1-6)Glc
# In short: as §1
# Glc(b1-4)Glc = target: Glc(b1-4)Glc
# In short: as §1
# Glc(b1-6)Glc = target: Glc(b1-6)Glc
# In short: as §1
# GlcA(b1-3)Gal = target: GlcA(b1-3)Gal
# In short: as §1
binder,measurement,setting,value
B1,glycan array binding signal (z-score),Gal3S4S(b1-4)GlcNAc,-0.246
same,glycan array binding signal (z-score),Gal3S6S(b1-4)GlcNAc,-0.004
same,glycan array binding signal (z-score),Gal3S6S(b1-4)GlcNAc6S,-0.228
same,glycan array binding signal (z-score),Gal4S(b1-4)GlcNAc,-0.309
same,glycan array binding signal (z-score),Gal4S6S(b1-4)GlcNAc,-0.292
same,glycan array binding signal (z-score),Gal6P(b1-4)GlcNAc,0.093
same,glycan array binding signal (z-score),Gal6S(b1-3)GlcNAc,-0.202
same,glycan array binding signal (z-score),Gal6S(b1-3)GlcNAc6S,-0.256
same,glycan array binding signal (z-score),Gal6S(b1-4)Glc,-0.334
same,glycan array binding signal (z-score),Gal6S(b1-4)Glc6S,-0.38
same,glycan array binding signal (z-score),Gal6S(b1-4)GlcNAc,-0.315
same,glycan array binding signal (z-score),Gal6S(b1-4)GlcNAc6S,-0.179
same,glycan array binding signal (z-score),GalNAc(a1-3)Gal,-0.087
same,glycan array binding signal (z-score),GalNAc(a1-3)GalNAc,-0.218
same,glycan array binding signal (z-score),[1],-0.262
same,glycan array binding signal (z-score),[2],-0.339
same,glycan array binding signal (z-score),GalNAc(b1-3)Gal,-0.172
same,glycan array binding signal (z-score),[3],-0.074
same,glycan array binding signal (z-score),[4],-0.327
same,glycan array binding signal (z-score),[5],-0.269
same,glycan array binding signal (z-score),GalNAc(b1-3)GalNAc,0.511
same,glycan array binding signal (z-score),GalNAc(b1-4)Gal(b1-4)Glc,1.05
same,glycan array binding signal (z-score),GalNAc(b1-4)GlcNAc,-0.213
same,glycan array binding signal (z-score),[6],-0.099
same,glycan array binding signal (z-score),GalNAc(b1-4)GlcNAc6S,-0.429
same,glycan array binding signal (z-score),GalNAc(b1-6)GalNAc,-0.421
same,glycan array binding signal (z-score),GalNAc3S(b1-4)GlcNAc,-0.111
same,glycan array binding signal (z-score),GalNAc3S(b1-4)GlcNAc3S,-0.173
same,glycan array binding signal (z-score),GalNAc4S6S(b1-4)GlcNAc,-0.105
same,glycan array binding signal (z-score),GalNAc6S(b1-4)GlcNAc,-0.126
same,glycan array binding signal (z-score),Glc(a1-4)Glc,-0.272
same,glycan array binding signal (z-score),[7],0.568
same,glycan array binding signal (z-score),Glc(a1-6)Glc(a1-6)Glc,-0.327
same,glycan array binding signal (z-score),[8],-0.076
same,glycan array binding signal (z-score),Glc(b1-4)Glc,-0.138
same,glycan array binding signal (z-score),Glc(b1-6)Glc,-0.278
same,glycan array binding signal (z-score),GlcA(b1-3)Gal,-0.214
